Patent publication US20150289513A1, “USE OF A COMPOUND COMPRISING A POLYFLUOROBENZYL MOIETY AGAINST INSECTICIDE-RESISTANT PESTS” (priority 2012, published 2015)
Further values from the same series stand in other lists.

Experiments:
[1] = tested on: Anopheles gambiae (target-site-resistant and metabolic-resistant strain: RSPH); assay: Glazed tile contact test, knock-down; format: in vivo
Method: (§1) To produce a suitable preparation Transfluthrin was dissolved in acetone. The active compound solution was pipetted onto a glazed tile and, after drying, adult mosquitoes of the species: • Anopheles gambiae (target-site-resistant and metabolic-resistant strain: RSPH), • Anopheles gambiae (target-site-resitant and metabolic-resistant strain: Tiassalé), • Anopheles gambiae (tar et-site-resitant and metabolic-resistant strain: Akron), • Anopheles gambiae (target-site-resistant strain: VK7), and • Anopheles funestus (metabolic-resistant strain FUMOZ-R) were placed onto the treated tile (each strain was tested on separate tiles). The exposition time was 30 minutes.
(§2) 0.25 hours, 0.5 hours, 1 hour, 2 hour, 3 hour, 4 hour and 24 hours after contact to the treated surface, the knock-down proportion of the test animals in % was determined. Here, 100% (effect) means that all mosquitoes have been killed; 0% (effect) means that none of the mosquitoes have been killed.
Similarly as outlined in example 2 for Transfluthrin, Metofluthrin efficacy was assessed against • Anopheles gambiae (target-site-resistant and metabolic-resistant strain: RSPH), • Anopheles funestus (metabolic-resistant strain FUMOZ-R), and • Culex quinquefasciatus (metabolic-resistant to DDT; strain P00), with the results shown in Tables 10 to 12. 0.25 hours, 0.5 hours, 1 hour, 2 hour, 3 hour, 4 hour and 24 hours after contact to the treated surface, the knock-down proportion of the test animals in % is depicted in Tables 10 to 12. 100% (effect) means that all mosquitoes have been killed; 0% (effect) means that none of the mosquitoes have been killed.
Similarly as outlined in example 2 for Transfluthrin, Metofluthrin efficacy was assessed against • Anopheles gambiae (target-site-resistant and metabolic-resistant strain: RSPH), • Anopheles funestus (metabolic-resistant strain FUMOZ-R), and with the results shown in Tables […]. 0.25 hours, 0.5 hours, 1 hour, 2 hour and 3 hours after contact to the treated surface, the knock-down proportion of the test animals in % is depicted in Tables 13 to 14. 100% (effect) means that all mosquitoes have been killed; 0% (effect) means that none of the mosquitoes have been killed.

[2] = tested on: Anopheles gambiae (strain: Akron); assay: Glazed tile contact test, knock-down; format: in vivo
Method: as §1, §2

## CC1(C)[C@H](C=C(Cl)Cl)[C@H]1C(=O)OCc1c(F)c(F)cc(F)c1F [Transfluthrin, (1R,3S)-3-(2,2-Dichlorovinyl)-2,2-dimethyl-1-cyclopropanecarboxylic acid (2,3,5,6-tetrafluorophenyl)methyl ester]
[1]; 0.32 g/ha, 0.25 h after contact
  Effect %: 10%
[1]; 0.32 g/ha, 0.5 h after contact
  Effect %: 25%
[1]; 0.32 g/ha, 1 h after contact
  Effect %: 25%
[1]; 0.32 g/ha, 2 h after contact
  Effect %: 35%
[1]; 0.32 g/ha, 3 h after contact
  Effect %: 55%
[1]; 0.32 g/ha, 4 h after contact
  Effect %: 40%
[1]; 0.32 g/ha, 24 h after contact
  Effect %: 60%
[1]; 1.6 g/ha, 0.25 h after contact
  Effect %: 100%
[1]; 1.6 g/ha, 0.5 h after contact
  Effect %: 100%
[1]; 1.6 g/ha, 1 h after contact
  Effect %: 100%
[1]; 1.6 g/ha, 2 h after contact
  Effect %: 100%
[1]; 1.6 g/ha, 3 h after contact
  Effect %: 100%
[1]; 1.6 g/ha, 4 h after contact
  Effect %: 100%
[1]; 1.6 g/ha, 24 h after contact
  Effect %: 100%
[1]; 8 g/ha, 0.25 h after contact
  Effect %: 100%
[1]; 8 g/ha, 0.5 h after contact
  Effect %: 100%
[1]; 8 g/ha, 1 h after contact
  Effect %: 100%
[1]; 8 g/ha, 2 h after contact
  Effect %: 100%
[1]; 8 g/ha, 3 h after contact
  Effect %: 100%
[1]; 8 g/ha, 4 h after contact
  Effect %: 100%
[1]; 8 g/ha, 24 h after contact
  Effect %: 100%
[1]; 40 g/ha, 0.25 h after contact
  Effect %: 100%
[1]; 40 g/ha, 0.5 h after contact
  Effect %: 100%
[1]; 40 g/ha, 1 h after contact
  Effect %: 100%
[1]; 40 g/ha, 2 h after contact
  Effect %: 100%
[1]; 40 g/ha, 3 h after contact
  Effect %: 100%
[1]; 40 g/ha, 4 h after contact
  Effect %: 100%
[1]; 40 g/ha, 24 h after contact
  Effect %: 100%
[1]; 200 g/ha, 0.25 h after contact
  Effect %: 100%
[1]; 200 g/ha, 0.5 h after contact
  Effect %: 100%
[1]; 200 g/ha, 1 h after contact
  Effect %: 100%
[1]; 200 g/ha, 2 h after contact
  Effect %: 100%
[1]; 200 g/ha, 3 h after contact
  Effect %: 100%
[1]; 200 g/ha, 4 h after contact
  Effect %: 100%
[1]; 200 g/ha, 24 h after contact
  Effect %: 100%
[2]; 1.6 g/ha, 0.25 h after contact
  Effect %: 5%
[2]; 1.6 g/ha, 0.5 h after contact
  Effect %: 15%
[2]; 1.6 g/ha, 1 h after contact
  Effect %: 5%
[2]; 1.6 g/ha, 2 h after contact
  Effect %: 10%
[2]; 1.6 g/ha, 3 h after contact
  Effect %: 10%
[2]; 1.6 g/ha, 4 h after contact
  Effect %: 5%
[2]; 1.6 g/ha, 24 h after contact
  Effect %: 15%
[2]; 8 g/ha, 0.25 h after contact
  Effect %: 90%
[2]; 8 g/ha, 0.5 h after contact
  Effect %: 100%
[2]; 8 g/ha, 1 h after contact
  Effect %: 100%
[2]; 8 g/ha, 2 h after contact
  Effect %: 95%
[2]; 8 g/ha, 3 h after contact
  Effect %: 90%
[2]; 8 g/ha, 4 h after contact
  Effect %: 90%
[2]; 8 g/ha, 24 h after contact
  Effect %: 75%
[2]; 40 g/ha, 0.25 h after contact
  Effect %: 100%
[2]; 40 g/ha, 0.5 h after contact
  Effect %: 100%
[2]; 40 g/ha, 1 h after contact
  Effect %: 100%
[2]; 40 g/ha, 2 h after contact
  Effect %: 100%
[2]; 40 g/ha, 3 h after contact
  Effect %: 100%
[2]; 40 g/ha, 4 h after contact
  Effect %: 100%
[2]; 40 g/ha, 24 h after contact
  Effect %: 100%
[2]; 200 g/ha, 1 h after contact
  Effect %: 100%
[2]; 200 g/ha, 2 h after contact
  Effect %: 100%
[2]; 200 g/ha, 3 h after contact
  Effect %: 100%
[2]; 200 g/ha, 4 h after contact
  Effect %: 100%
[2]; 200 g/ha, 24 h after contact
  Effect %: 100%
